The values that follow come from article PMC7865145, “Identification of existing pharmaceuticals and herbal medicines as inhibitors of SARS-CoV-2 infection” (Proceedings of the National Academy of Sciences of the …, 2021).

This assay concerns the target 3CL main protease (nsp5) of SARS-CoV-2 (Severe acute respiratory syndrome coronavirus 2, UniProt P0DTD1). The assay is described as follows: biochemical.
Setting [1] is: FRET-based enzymatic assay, 3 independent experiments, N.I. = no inhibition.
[2] abbreviates: FRET-based enzymatic assay, 3 independent experiments, N.I. = no inhibition, read-out: Inhibition % at 100 uM of compounds, 3CL main protease (nsp5).
The mark [3] stands for this setting: FRET-based enzymatic assay, three independent experiments, read-out: IC50 for 3CL protease inhibition.
Setting [4] is: calculated from the production of substrate based on HPLC analysis, read-out: Inhibition % at 100 uM of compounds, 3CL main protease (nsp5), value in parentheses.

Read-outs that look alike come from different tables or passages of the source.

One may read the IC50 as the concentration that inhibits the measured activity by half. As a reminder, the Ki is the dissociation constant of the complex between target and ligand, obtained from inhibition or displacement. Low values mean tighter binding, high ones weaker binding. By inhibition is commonly meant the drop in the measured response relative to a control, in per cent.

For `CC[C@@]1([C@@H]2O[C@@H]([C@H]3O[C@@](O)(CO)[C@H](C)C[C@@H]3C)C[C@@H]2C)CC[C@H]([C@]2(C)CC[C@]3(C[C@H](O)[C@@H](C)[C@@H]([C@@H](C)[C@@H](OC)[C@H](C)C(=O)O)O3)O2)O1` [Monensin 14, Monensin], the “Inhibition % at 100 uM of compounds, 3CL main protease (nsp5)” value (from here on “Inhibition % at 100 uM of compounds”) under setting [1] is “N.I”.

Take `CC(=O)N[C@@H](C)C(=O)N[C@H](C(=O)N[C@@H](Cc1ccccc1)[C@@H](O)[C@H](O)[C@H](Cc1ccccc1)NC(=O)[C@@H](NC(=O)[C@H](C)NC(C)=O)C(C)C)C(C)C` [JJS-0309]: the IC50 came out at 10.5 ± 0.3 µM and the Ki is 46 µM.

Turning to `COc1ccc2cc1Oc1ccc(cc1)C[C@H]1c3c(cc4c(c3Oc3cc5c(cc3OC)CCN(C)[C@@H]5C2)OCO4)CCN1C` [Cepharanthine 4, Cepharanthine], under setting [1], the “Inhibition % at 100 uM of compounds” value is reported as “N.I”.

`OC1(c2ccc(Cl)c(C(F)(F)F)c2)CCN(CCCC(c2ccc(F)cc2)c2ccc(F)cc2)CC1` [Penfluridol 11, Penfluridol]: the inhibition at 100 µM under setting [2] worked out at 25.6%.

`CO[C@@H]1[C@@H](OC)[C@H](C)[C@@](O)(CC(=O)O)O[C@H]1[C@H](C)[C@H]1O[C@@]2(CC[C@@](C)([C@H]3CC[C@@](C)([C@@H]4O[C@@H]([C@H]5O[C@](C)(O)[C@H](C)C[C@@H]5C)C[C@@H]4O[C@@H]4C[C@H](OC)[C@@H](OC)[C@H](C)O4)O3)O2)C[C@H](O)[C@H]1C` [Maduramicin 15, Maduramicin]: under setting [1], the “Inhibition % at 100 uM of compounds” value is on record as “N.I”.

For the compound `CC(C)[C@H](NC(=O)[C@H](C)NC(=O)OCc1ccccc1)C(=O)N[C@@H](Cc1ccccc1)[C@@H](O)[C@H](O)[C@H](Cc1ccccc1)NC(=O)[C@@H](NC(=O)[C@H](C)NC(=O)OCc1ccccc1)C(C)C` [TL-3], the IC50 under setting [3] worked out at 25 µM.

Turning to `OC(c1cc(C(F)(F)F)nc2c(C(F)(F)F)cccc12)C1CCCCN1` (stereo not drawn) [Mefloquine 8, Mefloquine], the “Inhibition % at 100 uM of compounds” value under setting [1] is given as “N.I”.

In the case of `CC[C@H](C)[C@H]1O[C@]2(CC[C@@H]1C)C[C@@H]1C[C@@H](C/C=C(\C)[C@@H](O[C@H]3C[C@H](OC)[C@@H](O[C@H]4C[C@H](OC)[C@@H](O)[C@H](C)O4)[C@H](C)O3)[C@@H](C)/C=C/C=C3\CO[C@@H]4[C@H](O)C(C)=C[C@@H](C(=O)O1)[C@]34O)O2` [Ivermectin 6, Ivermectin], the “Inhibition % at 100 uM of compounds” value under setting [1] is reported as “N.I”.

Regarding `Cc1c(O)cccc1C(=O)N[C@@H](CSc1ccccc1)[C@H](O)CN1C[C@H]2CCCC[C@H]2C[C@H]1C(=O)NC(C)(C)C` [Nelfinavir 1, Nelfinavir], half-maximal inhibition (IC50) required 118 ± 18 µM and the Ki is 38.8 µM. Under setting [1], the “Inhibition % at 100 uM of compounds” value is “showed inhibition”. The inhibition at 100 µM under setting [2] was 21%. In addition, the inhibition at 100 µM under setting [4] was 10.3%.

On to `CC(C)(C)NC(=O)N[C@H](C(=O)N1C[C@H]2[C@@H]([C@H]1C(=O)NC(CC1CCC1)C(=O)C(N)=O)C2(C)C)C(C)(C)C` (stereo partly drawn) [Boceprevir 2, Boceprevir], for which the “Inhibition % at 100 uM of compounds” value under setting [1] is recorded as “showed inhibition”. In addition, the inhibition at 100 µM is, setting by setting: under setting [2], 93.8%; under setting [4], 83.6%.

On to `CCCCc1oc2ccc(NS(C)(=O)=O)cc2c1C(=O)c1ccc(OCCCN(CCCC)CCCC)cc1` [Dronedarone 12, Dronedarone], for which the inhibition at 100 µM is 41.5% under setting [2] and 28.7% under setting [4].

In the case of `CC(C)(C)c1cc(C(C)(C)C)c(NC(=O)c2c[nH]c3ccccc3c2=O)cc1O` [Ivacaftor 9, Ivacaftor], the inhibition at 100 µM under setting [2] was 10.9%.

With `Cc1cccc(C)c1OCC(=O)N[C@@H](Cc1ccccc1)[C@@H](O)C[C@H](Cc1ccccc1)NC(=O)[C@H](C(C)C)N1CCCNC1=O` [Lopinavir], the IC50 under setting [3] came out at 234 ± 98 µM.

Consider `CC1=C(C(=O)OC(C)C)C(c2cccc([N+](=O)[O-])c2)C(C(=O)OC2CN(C(c3ccccc3)c3ccccc3)C2)=C(N)N1` (stereo not drawn) [Azelnidipine 10, Azelnidipine], for which the inhibition at 100 µM under setting [2] worked out at 2%.

For the compound `CC[C@@H](C(=O)[C@@H](C)[C@@H](O)[C@H](C)[C@@H]1O[C@@H]([C@@H](CC)C(=O)O)CC[C@@H]1C)[C@H]1O[C@]2(C=C[C@@H](O)[C@]3(CC[C@@](C)([C@H]4CC[C@](O)(CC)[C@H](C)O4)O3)O2)[C@H](C)C[C@@H]1C` [Salinomycin 13, Salinomycin], the “Inhibition % at 100 uM of compounds” value under setting [1] is “N.I”.

As to `CO/N=C1\C[C@]2(C[C@@H]3C[C@@H](C/C=C(\C)C[C@@H](C)/C=C/C=C4\CO[C@@H]5[C@H](O)C(C)=C[C@@H](C(=O)O3)[C@]45O)O2)O[C@H](/C(C)=C/C(C)C)[C@H]1C` [Moxidectin 7, Moxidectin], the inhibition at 100 µM under setting [2] came to 2.8%.
